Measured values from ChEMBL document CHEMBL4888484, “Replenishing the malaria drug discovery pipeline: Screening and hit evaluation of the MMV Hit Generation Library 1 (HGL1) against asexual blood stage Plasmodium falciparum ,using a nano luciferase reporter read-out” (2022).
Screen size: about 150,000 compounds; about 540 (0.36%) showed an effect of 50% or more. Some of the results follow.

Tested on: Plasmodium falciparum
Assay: Primary screen in NF54 nanoGlo assay, in single point, at 2uM, 72h; a lower Z score goes with more inhibition
Type: functional, Erythrocyte
Conditions: timepoint 72 hour

With `Cc1ccc(CN(CCc2c[nH]c3ccccc23)Cc2nc(C(=O)NC[C@H]3CCCO3)co2)c(C)c1` as the molecule, how does the “% Inhibition” value read?
Its value is 2%.

And the Z score?
The Z score was -0.3.

`COCCOCC(=O)N1CCC(N2CC3(CCCCC3)[C@H]2c2ccccc2)CC1` was tested. Which “% Inhibition” value did it give?
The value was -1%.

What about the Z score of the same molecule?
The Z score was 0.19.

`COC1CCCCCC1NC(=O)N1CCC(C(C)O)C1` (stereo not drawn) was tested. Which “% Inhibition” value did it give?
The value was -17%.

And the Z score?
The Z score was 3.28.

For `CNc1nn(CC(=O)NCCC2=CCCCC2)c(N)c1-c1nc(-c2ccc(C)cc2)no1`, which “% Inhibition” value is on record?
Its value is -21%.

And the Z score?
Its Z score is 2.65.

What does the source list for `CO[C@H](C(=O)Nc1nc2c(Cl)cccc2n1C)C(C)C`?
% Inhibition: -2%; Z score: 0.45

`COC[C@H]1CCN(C(=O)N2CCC(c3noc(C(C)C)n3)CC2)C1` was tested. Which “% Inhibition” value did it give?
Its value is -12%.

What about the Z score of the same molecule?
The Z score was 1.6.

For `O=C(NC[C@H]1CC2c3ccccc3C1c1ccccc12)C1CCC1`, which “% Inhibition” value is on record?
Its value is 16%.

What about the Z score of the same molecule?
Its Z score is -1.33.

For `COC(=O)[C@@H]1C[C@@H](O)CN1Cc1coc(-c2ccccc2)n1`, which “% Inhibition” value is on record?
Its value is 2%.

What about the Z score of the same molecule?
The Z score was -0.31.

What does the source list for `O=C(NCCC1=CCCCC1)c1cccc(-n2cnnn2)c1`?
% Inhibition: -7%; Z score: 1.19

For `Cc1n[nH]nc1C(=O)OCCNS(=O)(=O)c1ccccc1`, which “% Inhibition” value is on record?
The value was -1%.

And the Z score?
Its Z score is 0.18.

With `CC(=O)C1C(c2ccncc2)NC(=O)NC1(O)C(F)(F)F` (stereo not drawn) as the molecule, how does the “% Inhibition” value read?
Its value is 5%.

What about the Z score of the same molecule?
The Z score was -0.73.

With `Cc1cnc2c(c1)N(C(=O)C[C@H]1CCC(=O)NC1)CC2` as the molecule, how does the “% Inhibition” value read?
Its value is -16%.

And the Z score?
The Z score was 2.49.

Which results are given for `Cn1c2ccccc2c2cc(/C=C(\NC(=O)c3ccccc3)C(=O)O)ccc21`?
% Inhibition: -31%; Z score: 3.63

`OC1(CNc2ccccn2)CCOCC1` was tested. Which “% Inhibition” value did it give?
The value was -2%.

What about the Z score of the same molecule?
The Z score was 0.17.

Which “% Inhibition” value does the source give for `O=C(Nc1ccc2nc(N3CCC(N4CCCCC4)CC3)cc(C(=O)O)c2c1)c1ccc(F)cc1` here?
Its value is -21%.

And the Z score?
The Z score was 2.4.

`O=C(Nc1ccccc1C(F)(F)F)N1CCCN(c2nc(Cc3ccccc3)nc3onc(-c4ccccc4)c23)CC1` was tested. Which “% Inhibition” value did it give?
The value was 3%.

What about the Z score of the same molecule?
Its Z score is -0.26.

Which “% Inhibition” value does the source give for `Cc1nc2cc(CNC(=O)[C@H](C3CC3)N3CCCC3)ccc2n1C1CC1` here?
Its value is -10%.

What about the Z score of the same molecule?
The Z score was 1.04.

What does the source list for `C[C@@H](O)CN1CCN(C2CCc3ccccc3NC2=O)CC1` (stereo partly drawn)?
% Inhibition: 0%; Z score: 0.03

Which “% Inhibition” value does the source give for `Cn1nc(C2CC2)cc1CNC(=O)Nc1cc([C@@H]2CCCO2)nn1C` here?
Its value is -7%.

What about the Z score of the same molecule?
Its Z score is 1.31.

For `CC1CN(C(=O)CCn2nnc3ccccc3c2=O)CC(C)O1` (stereo not drawn), which “% Inhibition” value is on record?
Its value is -3%.

And the Z score?
The Z score was 0.53.

Which results are given for `Cn1cncc1C(=O)NCc1cccc(C(F)(F)F)n1`?
% Inhibition: 7%; Z score: -1.16

Which results are given for `FC(F)[C@@H]1CN(c2nc3ccccc3o2)CCO1`?
% Inhibition: -10%; Z score: 1.82

Which results are given for `COC(=O)C(C)CN1CCOC(c2nc(C)n[nH]2)C1` (stereo not drawn)?
% Inhibition: 0%; Z score: -0.01

How did the “% Inhibition” value turn out when `Nc1cccc(-c2ccc3nnc(-c4cccnc4)n3n2)c1` was run?
Its value is -4%.

And the Z score?
The Z score was 0.68.

`O=C(c1ccccc1Cl)N1Cc2cnc(N3CCOCC3)nc2C1` was tested. Which “% Inhibition” value did it give?
The value was -10%.

And the Z score?
Its Z score is 1.92.

Which results are given for `O=C(Cc1ccsc1)N1CC[C@@](C(=O)O)(C(F)(F)F)C1`?
% Inhibition: -5%; Z score: 0.58

What does the source list for `Cc1cc(NC(=O)Cc2ccc(C)c(C)c2)on1`?
% Inhibition: -2%; Z score: 0.32

With `CCc1noc(C)c1C(=O)N[C@H]1[C@@H]2CCO[C@@H]2[C@@H]1C1CCCC1` as the molecule, how does the “% Inhibition” value read?
Its value is -14%.

And the Z score?
The Z score was 2.69.

Which “% Inhibition” value does the source give for `CC(=O)Nc1nc(C)c(S(=O)(=O)N2CCN(Cc3ccccc3)CC2)s1` here?
The value was -14%.

And the Z score?
Its Z score is 1.52.

Which “% Inhibition” value does the source give for `CC(C)(C)OC(=O)Nc1ccccc1Cl` here?
Its value is 8%.

And the Z score?
Its Z score is -1.27.

Which “% Inhibition” value does the source give for `Cc1nn(CC(=O)N[C@H]2CS(=O)(=O)C2(C)C)c2ncccc12` here?
Its value is -3%.

What about the Z score of the same molecule?
Its Z score is 0.28.

With `N#Cc1ccc(CN2C(=O)NC3(CCCCCCC3)C2=O)cc1` as the molecule, how does the “% Inhibition” value read?
Its value is -4%.

What about the Z score of the same molecule?
Its Z score is 0.72.

With `O=S(=O)(c1cc(F)ccc1F)N1CCC(c2noc(COCC3CC3)n2)CC1` as the molecule, how does the “% Inhibition” value read?
The value was -2%.

What about the Z score of the same molecule?
Its Z score is 0.28.

Which results are given for `c1ccc2c(-c3ncc(CN4CCCN5CCC[C@H]5C4)cn3)cccc2c1`?
% Inhibition: 3%; Z score: -0.62

With `COCCN1CCC[C@@H]1CNC1Cc2ccccc2C1` as the molecule, how does the “% Inhibition” value read?
The value was -5%.

And the Z score?
Its Z score is 0.53.

For `O=C(Nc1ccc(Oc2ccccc2)cc1)C1CCN(S(=O)(=O)Cc2ccc(F)cc2)CC1`, which “% Inhibition” value is on record?
Its value is -6%.

And the Z score?
Its Z score is 1.04.

How did the “% Inhibition” value turn out when `CN(C)c1noc(CN[C@H]2CCOC2)n1` was run?
Its value is -9%.

What about the Z score of the same molecule?
The Z score was 0.91.

Which “% Inhibition” value does the source give for `COCCNC(=O)NCCn1nc(C2CC2)n(-c2ccccc2)c1=O` here?
The value was -15%.

And the Z score?
Its Z score is 1.67.

What does the source list for `c1ccn2c(CNc3cnccn3)cnc2c1`?
% Inhibition: -5%; Z score: 0.96

How did the “% Inhibition” value turn out when `CCc1nnc2n1C[C@@H](CNCc1cn3ccccc3c1C#N)CC2` was run?
Its value is -2%.

And the Z score?
The Z score was 0.3.

What does the source list for `CC(C)CC(=O)Nc1ccc2c(c1)cc(C(=O)Nc1ccccc1)n2Cc1ccc(C(C)(C)C)cc1`?
% Inhibition: 30%; Z score: -3.6

How did the “% Inhibition” value turn out when `Cc1ccc(OCC(=O)N2CC[C@H](c3nc4ccncc4n3C(C)C)C2)cc1` was run?
Its value is -6%.

What about the Z score of the same molecule?
The Z score was 0.54.

Which “% Inhibition” value does the source give for `COCC1(C(=O)NCc2cc3c(nc2OC)CN(C2CCCC2)C3=O)CCC1` here?
The value was -4%.

What about the Z score of the same molecule?
Its Z score is 0.58.

Which “% Inhibition” value does the source give for `O=C(NC1CCOC2(CCCCC2)C1)C1CCCN1C(=O)Cc1cccs1` (stereo not drawn) here?
The value was -1%.

And the Z score?
The Z score was 0.22.

How did the “% Inhibition” value turn out when `O=C(c1ccn2c(-c3ccccc3)nnc2c1)N1CCN(c2cccc(C(F)(F)F)c2)CC1` was run?
The value was -10%.

And the Z score?
The Z score was 1.17.

How did the “% Inhibition” value turn out when `O=C(CN1CCN(C2CCCCC2)C(=O)C1=O)NC1CCCCC1` was run?
The value was -10%.

What about the Z score of the same molecule?
The Z score was 1.21.

Which results are given for `O=C(C[C@H]1COc2ccccc2O1)Nc1ccccn1`?
% Inhibition: -13%; Z score: 1.66

With `CCc1nc(Cc2nc(Cc3ccccc3)no2)cs1` as the molecule, how does the “% Inhibition” value read?
Its value is -7%.

And the Z score?
The Z score was 0.81.

Which results are given for `CC(C)[C@@H]1CCCN1C(=O)CCc1c[nH]cn1`?
% Inhibition: -13%; Z score: 1.34

`O=C(N[C@H](c1ccncc1)c1ccc(Cl)cc1)c1cn(CCCc2ccccc2)nn1` was tested. Which “% Inhibition” value did it give?
Its value is -1%.

And the Z score?
The Z score was 0.09.

Which “% Inhibition” value does the source give for `Cn1cc(C(N)=O)c(NC(=O)c2ccc(-c3cccs3)s2)n1` here?
Its value is -16%.

What about the Z score of the same molecule?
Its Z score is 1.83.

`CN(C)c1ccc(CN2CC[C@H](c3nc4ccccc4n3C)C2)cc1` was tested. Which “% Inhibition” value did it give?
The value was -13%.

And the Z score?
Its Z score is 2.08.

What does the source list for `CC(C(=O)N1C(C)CC(c2ccccc2)C1C)C1CCOCC1` (stereo not drawn)?
% Inhibition: -12%; Z score: 1.7

How did the “% Inhibition” value turn out when `O=c1[nH]nc2n1CCN(Cc1ccc(F)c(Br)c1)CC2` was run?
The value was 4%.

And the Z score?
Its Z score is -0.51.
